The results in this text go back to the supplement of paper PMC4723716.

± gives the uncertainty stated by the source. In all, about 9,900 compounds were measured (“viability index relative to DMSO control”: median about 1, lowest 2% from about 0.85 on). The list shows a part of the results.

The test system of the assay is Plasmodium falciparum NF54 stage V gametocytes. As to the kind of experiment: viability index relative to DMSO control (fraction); higher = less gametocyte killing. Conditions: 2.5 µM, library set: Broad Institute DOS, incubation time: 72 h. In outline: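 P. falciparum NF54 stage V gametocytes in serum-free screening medium (0.75% gametocytemia, 1.25% hematocrit, 10 µl) were incubated with compound at 2.5 µM in 1,536-well plates for 72 hr at 37°C under low oxygen. Then 3 µl of 2.5 µM MitoTracker Red CMXRos plus 0.13% saponin was added for one to two hours. One field per well was imaged, 20–70 µm2 red particles were counted, and the viability index was the count divided by the plate mean of DMSO wells.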
For `CO[C@@H](CN(C)Cc1cc(F)ccc1F)[C@@H](C)CN([C@H](C)CO)S(=O)(=O)c1ccc(C)cc1`, the viability index worked out at 0.936 ± 0.054. As for `O=C(NC1CCCC1)N[C@@H]1C=C[C@H](CC(=O)N2CCOCC2)O[C@H]1CO`, the viability index worked out at 1.059 ± 0.0098. As for `C[C@H]1C/C=C/C[C@H](c2ccc(F)cc2)NC(=O)[C@H](Cc2ccccc2)N(C)C(=O)c2ccccc2O1.C[C@H]1C/C=C\C[C@H](c2ccc(F)cc2)NC(=O)[C@H](Cc2ccccc2)N(C)C(=O)c2ccccc2O1`, the viability index was determined as 0.965 ± 0.083. `CN1C(=O)c2cc(NS(C)(=O)=O)ccc2OC[C@@H]2O[C@H](CC(=O)NCc3ccccc3)CC[C@H]21` had a viability index of 1.13 ± 0.08. Consider `O=C1CCCc2cnnn2COCCN1`, for which the viability index turned out to be 0.993 ± 0.1.

Take `COC(=O)C[C@@H]1CC[C@@H]2[C@H](COc3ccc(NC(=O)Nc4cccc(C#N)c4)cc3C(=O)N2C)O1`: the viability index is 1.116 ± 0.0093. For `CCNC(=O)c1cc2c(c(-c3cccc(-c4cccnc4)c3)n1)[C@H](CCO)N(S(C)(=O)=O)C2` the value was 1.04 ± 0.018; for `Cc1noc(C)c1S(=O)(=O)Nc1ccc2c(c1)CC(=O)N([C@@H](C)CO)C[C@@H](C)[C@@H](CN(C)Cc1ccc(Oc3ccccc3)cc1)O2`, 0.851 ± 0.12; for `COc1cccc(-c2cccc(-c3nc(C(=O)O)cc4c3[C@@H](CCO)N(S(=O)C(C)(C)C)C4)c2)c1` (some centres undefined), 1.009 ± 0.0083. In turn, `Cc1cccc(S(=O)(=O)N[C@@H]2CC[C@@H](CCNC(=O)Nc3cc(F)ccc3F)O[C@@H]2CO)c1` returned a viability index of 1.15 ± 0.057. Take `O=C(NC1CCCC1)N[C@H]1C=C[C@@H](CC(=O)N2CCOCC2)O[C@H]1CO`: the viability index came out at 1.1 ± 0.16. For `C[C@H]1CN([C@@H](C)CO)C(=O)c2cc(-c3cccc(C(=O)N(C)C)c3)cnc2O[C@H]1CN(C)C(=O)Cc1ccccn1`, the viability index turned out to be 1.04 ± 0.013.

Compound `C/C=C/c1ccc([C@@H]2[C@@H](CO)N3C(=O)CN(S(=O)(=O)c4ccccc4)C[C@H]23)cc1` had a viability index of 1.11 ± 0.026. Next, `CC(C)NC(=O)Nc1ccc2c(c1)C(=O)N([C@@H](C)CO)C[C@H](C)[C@@H](CN(C)C(=O)C1CCCCC1)OCCCC[C@@H](C)O2`: 1.06 ± 0.024; `CC(C)NC(=O)N[C@@H]1CC[C@H](CC(=O)NCCCN(C)C)O[C@H]1CO`: 1.01 ± 0.017; `C[C@H]1CN([C@@H](C)CO)C(=O)c2ccccc2-c2ccccc2CO[C@@H]1CN(C)C(=O)[C@@H](Cc1ccccc1)N(C)C`: 1.04 ± 0.19. Next, `COc1ccc(S(=O)(=O)Nc2ccc3c(c2)C(=O)N([C@@H](C)CO)C[C@@H](C)[C@H](CN(C)Cc2ccc(C(F)(F)F)cc2)OCCCC[C@H](C)O3)cc1`: 1.07 ± 0.046. Consider `Cc1noc(C)c1NC(=O)N1C[C@H](O)COC[C@H]2O[C@@H](CC(=O)N[C@@H]3CCN(Cc4ccccc4)C3)CC[C@@H]21`, for which the viability index came out at 0.963 ± 0.025. For `CCC(=O)Nc1ccc2c(c1)OC[C@@H](C)N(Cc1ccccc1)C[C@@H](C)[C@@H](OC)CN(C)C2=O`, the viability index stood at 1.05 ± 0.028.

In the case of `CCCNC(=O)N1[C@@H]2c3cccc(=O)n3C[C@H]1[C@H](CO)[C@H]2C(=O)N1CCC(Cc2ccccc2)CC1`, the viability index was 1.06 ± 0.012.

As to `CN1C(=O)c2cc(NC(=O)c3ccccc3Cl)ccc2OC[C@H]2O[C@@H](CC(=O)Nc3ccc4c(c3)CCC4)CC[C@@H]21`, the viability index worked out at 1.16 ± 0.036. `C[C@@H]1CN([C@@H](C)CO)C(=O)c2ccccc2-c2ccccc2CO[C@@H]1CN(C)C(=O)[C@H]1CCCN1C` showed a viability index of 0.941 ± 0.073. `COCC(=O)Nc1ccc2c(c1)C(=O)N(C)C[C@H](OC)[C@H](C)CN(CCc1ccccc1)[C@@H](C)CO2` gave a viability index of 1.03 ± 0.049. `O=C(C[C@H]1C=C[C@@H](NS(=O)(=O)c2ccc(F)cc2)[C@H](CO)O1)N1CCc2ccccc2C1`: the viability index stood at 1.03 ± 0.029. With `C/C=C/c1ccc([C@H]2[C@@H](CN(C)C(C)=O)N(C(=O)NC(C)C)[C@H]2CO)cc1`, the viability index was 1.03 ± 0.014. For `COc1cccc(C(=O)Nc2ccc3c(c2)C(=O)N(C)[C@@H]2CC[C@@H](CC(=O)N[C@H](C)c4ccccc4)O[C@@H]2CO3)c1`, the viability index is 1.18 ± 0.073.

For `CN(C[C@H]1[C@@H](c2ccccc2)[C@H](CO)N1Cc1ccccn1)S(C)(=O)=O`, the viability index turned out to be 1.01 ± 0.012. In the case of `CC(=O)N1[C@H](CO)[C@H](c2ccccc2)[C@H]1CN(CC(C)C)C(=O)c1ccccn1`, the viability index amounted to 1.05 ± 0.058. In turn, `O=C(c1ccccc1)N1CC(=O)N2[C@H](C1)[C@H](c1ccc(-c3ccccc3)cc1)[C@@H]2CO` registered a viability index of 0.954 ± 0.029. For `C[C@H](NC(=O)C[C@@H]1CC[C@@H]2[C@H](COC[C@@H](O)CN2Cc2ccc(C(F)(F)F)cc2)O1)c1ccccc1` the value was 0.981 ± 0.064. Next, `C[C@@H]1CN([C@@H](C)CO)C(=O)c2cc(N(C)C)ccc2O[C@@H](C)CCCCO[C@H]1CN(C)S(=O)(=O)c1ccc(F)cc1`: 1.12 ± 0.11; `CCCNC(=O)N1CC(=O)N2[C@H](CO)[C@@H](c3ccc(C#Cc4cccc(OC)c4)cc3)[C@@H]2C1`: 1.03 ± 0.025; `O=C(CC1CC1)N1[C@@H](CO)[C@@H]2c3ccccc3N(S(=O)(=O)c3ccccc3F)C[C@@H]21`: 1.07 ± 0.061. `COCC#Cc1ccc([C@@H]2[C@@H](CO)N3C(=O)CN(C(=O)CN4CCOCC4)C[C@H]23)cc1` had a viability index of 1.052 ± 0.0074. For `C/C=C/c1ccc([C@H]2[C@H](CO)N3CCCCN(S(=O)(=O)c4ccc(OC)cc4)C[C@@H]23)cc1`, the viability index was found to be 1.02 ± 0.036. The compound `CC(C)NC(=O)N(C)C[C@@H]1Oc2c(NS(=O)(=O)c3cccs3)cccc2C(=O)N([C@H](C)CO)C[C@@H]1C` had a viability index of 1.005 ± 0.0077. The compound `C[C@@H]1CN([C@@H](C)CO)C(=O)c2cc(NC(=O)CCCN(C)C)ccc2O[C@@H]1CN(C)Cc1ccc(Cl)c(Cl)c1` came in with a viability index of 0.945 ± 0.062. Compound `C[C@@H]1CN([C@H](C)CO)C(=O)c2cc(NC(=O)Nc3cccc4ccccc34)ccc2O[C@H]1CN(C)S(=O)(=O)c1cccs1` gave a viability index of 1.007 ± 0.0072. On to `CC(=O)NC[C@@H]1[C@@H](c2ccc(-c3cccnc3)cc2)[C@@H](CO)N1C(=O)CC1CC1`, for which the viability index stood at 1.05 ± 0.09. In turn, `CO[C@H]1CN(C)C(=O)c2ccc(NC(=O)c3cccc(F)c3)cc2OC[C@@H](C)NC[C@H]1C` came in with a viability index of 1.08 ± 0.056. For the compound `COc1ccc2c3c([nH]c2c1)[C@@H](CO)N(Cc1ccncc1)C[C@]31CN(C1)C(=O)CN(C)C`, the viability index was determined as 0.959 ± 0.036.

Regarding `COc1ccc2c3c([C@H](CO)N(Cc4nccs4)C[C@]33CCN(CC3)C(=O)CN(C)C)n(C)c2c1`, the viability index was 0.955 ± 0.12. As to `CO[C@H](CN(C)C(=O)C1CCOCC1)[C@H](C)CN([C@@H](C)CO)S(=O)(=O)c1ccccc1`, the viability index was determined as 1.1 ± 0.032. On to `CCCNC(=O)Nc1ccc2c(c1)C(=O)N(C)C[C@H](OC)[C@@H](C)CN(C)[C@@H](C)CO2`, for which the viability index was 0.987 ± 0.028.
